From PubChem BioAssay AID504332 (National Center for Advancing Translational Sciences (NCATS), 2011)
Screen size: about 350,000 compounds; about 31,000 (8.9%) were called active. Inconclusive means that the source gave no clear call. Such entries were picked first, then a sample of the others. The call rests on the fitted dose curve; in most records, active means well fitted inhibition curve with a large enough effect; inconclusive means small, poorly fitted or top-dose-only effect; inactive means no such curve, though single readings can be large or run the other way. A potency beside an inconclusive call is a rough fit, not a confirmed value.

target: Histone-lysine N-methyltransferase EHMT2 (Homo sapiens) (UniProt Q96KQ7); assay: qHTS Assay for Inhibitors of Histone Lysine Methyltransferase G9a; details: G9a H3K9 monomethylation, AlphaScreen, 2 h; activity, negative = inhibition: at 59 µM (top of the series) unless noted; further: nearly all actives have a fitted effect of over 75% in size
How it was run: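 Enzyme 20 nM + cpd, 15 min RT; add b-H3K9 pep 500 nM / SAM 20 uM; 2 h RT; anti-H3K9me1 Ab 0.5 ug/mL + SA donor / anti-rabbit acceptor beads 20 ug/mL each, 10 min; AlphaScreen read.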
On the % scale 0 is the no-effect control and ±100 the full control effect; potency means the concentration at half of the fitted maximal effect; tags describe the fitted curve by direction and shape.

Chain of UniProt Q96KQ7 (Q96KQ7 whole entry, looked up): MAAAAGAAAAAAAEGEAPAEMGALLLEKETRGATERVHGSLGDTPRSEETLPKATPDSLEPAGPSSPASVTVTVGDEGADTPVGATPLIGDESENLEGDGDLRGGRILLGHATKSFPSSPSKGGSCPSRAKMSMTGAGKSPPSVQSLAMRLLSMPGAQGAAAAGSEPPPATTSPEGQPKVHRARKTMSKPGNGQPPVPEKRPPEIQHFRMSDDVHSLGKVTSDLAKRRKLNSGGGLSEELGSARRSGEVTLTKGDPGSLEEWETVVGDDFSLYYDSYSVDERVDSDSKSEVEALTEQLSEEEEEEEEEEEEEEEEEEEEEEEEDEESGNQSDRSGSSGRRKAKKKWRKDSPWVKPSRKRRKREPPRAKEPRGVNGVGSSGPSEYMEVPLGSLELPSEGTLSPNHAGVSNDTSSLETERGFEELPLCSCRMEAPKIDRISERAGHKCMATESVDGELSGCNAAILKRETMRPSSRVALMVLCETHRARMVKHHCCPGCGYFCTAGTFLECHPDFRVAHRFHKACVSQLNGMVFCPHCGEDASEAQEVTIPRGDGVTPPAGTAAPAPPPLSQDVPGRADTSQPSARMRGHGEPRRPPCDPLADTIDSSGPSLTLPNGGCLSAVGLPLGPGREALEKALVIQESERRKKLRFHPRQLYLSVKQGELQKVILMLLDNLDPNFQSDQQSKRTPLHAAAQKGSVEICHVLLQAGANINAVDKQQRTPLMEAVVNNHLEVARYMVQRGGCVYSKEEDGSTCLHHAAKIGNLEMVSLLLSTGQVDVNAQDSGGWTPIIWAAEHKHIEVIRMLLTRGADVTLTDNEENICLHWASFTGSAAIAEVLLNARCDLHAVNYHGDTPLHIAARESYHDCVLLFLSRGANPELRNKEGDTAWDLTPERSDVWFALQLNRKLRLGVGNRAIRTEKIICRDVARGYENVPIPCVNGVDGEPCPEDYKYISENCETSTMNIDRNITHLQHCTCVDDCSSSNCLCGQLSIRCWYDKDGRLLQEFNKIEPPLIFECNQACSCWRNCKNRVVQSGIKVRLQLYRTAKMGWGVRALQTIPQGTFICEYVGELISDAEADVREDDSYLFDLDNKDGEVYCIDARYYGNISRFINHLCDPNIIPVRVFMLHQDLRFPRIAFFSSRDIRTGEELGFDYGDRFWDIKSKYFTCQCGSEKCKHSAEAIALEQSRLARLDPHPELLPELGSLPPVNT

Row | Compound | Potency | activity, negative = inhibition
1 | Cc1occc1C(=O)N(C)Cc1nc(-c2ccc(Cl)cc2)no1 | inactive | –
2 | N#Cc1ccc(C(=O)N2CCN(c3nc4ccc(F)cc4s3)CC2)cc1 | inactive | –
3 | O=C(NC(=S)NC1C2CC3CC(C2)CC1C3)C12CC3CC(CC(C3)C1)C2 (stereo not given) | inconclusive: 79.4 µM [inhibitor, partial curve, poor fit] | –
4 | CC(=O)c1ccc(-n2c(CCC(=O)O)ccc2-c2ccc(Cl)cc2)cc1 | active: 39.8 µM | –
5 | CC(=O)Nc1ccc(S(=O)(=O)Nc2nc3ccccc3nc2Nc2ccccc2)cc1 | inconclusive: 25.1 µM [inhibitor, single point] | –
6 | Cc1sc2ncnc(N[C@@H](Cc3c[nH]c4ccccc34)C(=O)O)c2c1C | inconclusive: 20 µM [inhibitor, single point] | –
7 | COC(=O)c1c(-c2ccc(Br)cc2)csc1NC(=O)Cc1ccc(OC)c(OC)c1 | – | inconclusive: -64% [inhibitor]
8 | Cc1ccc(C)c(NC(=O)C2C3C=CC(O3)C2C(=O)O)c1 (stereo not given) | active: 44.7 µM | –
9 | O=C(c1ccccc1)N1CCN(C(=S)NCc2ccc3c(c2)OCO3)CC1 | inconclusive: 28.2 µM [inhibitor, single point] | –
10 | CCC1(C)Cc2nc3sc(C(=O)O)c(N)c3cc2CO1 (stereo not given) | active: 3.55 µM | –
11 | CC1=NN(c2ccccc2)C(=O)C1(C)C | inactive | –
12 | Cc1ccc(N2C(=O)c3cccc4c(Oc5ccccc5[N+](=O)[O-])ccc(c34)C2=O)c(C)c1 | inconclusive: 15.8 µM [inhibitor, single point] | –
13 | c1ccc(CN(CC2=NCCN2)c2ccccc2)cc1 | inactive | –
14 | O=C(CSc1cn[nH]n1)Nc1ccc(Cl)cc1Cl | inactive | –
15 | CC1CCC(=O)N(CCC#N)CC1 (stereo not given) | active: 50.1 µM | –
16 | Cc1cc(C)n(/N=C/c2cc(Cl)cc(Cl)c2O)c(=O)c1 | inactive | –
17 | O=C(O)c1ccc(-c2ccc(-c3ccccc3)cc2)s1 | inconclusive: 89.1 µM [inhibitor, single point] | –
18 | Cc1cc(C)n2nc(/C(C#N)=C/c3ccccn3)c(C#N)c2n1 | inconclusive: 50.1 µM [inhibitor, partial curve] | –
19 | O=C(NCC1CCCO1)c1sc(=S)n2c1[nH]c(=O)c1ccc(C(=O)N3CCCCC3)cc12 (stereo not given) | active: 44.7 µM | –
20 | CN(C)c1nc(Cl)nc(N(C#N)CCOc2ccccc2)n1 | inactive | –
21 | Cc1ccc(S(=O)(=O)N2CCOC2CNC(=O)C(=O)NCc2ccco2)cc1 (stereo not given) | inconclusive: 89.1 µM [inhibitor, single point] | –
22 | C=CCN(C(=O)c1cccc(S(=O)(=O)N2CCN(C)CC2)c1)c1nc(-c2ccccc2)cs1 | inconclusive: 25.1 µM [inhibitor, single point] | –
23 | CC1Cc2ccccc2N1c1nc(C2CC2)nc2c1nnn2Cc1ccccc1 (stereo not given) | inactive | –
24 | O=S(=O)(Nc1cc(F)ccc1F)c1ccc2[nH]c3c(c2c1)CCCCC3 | inconclusive: 12.6 µM [inhibitor, partial curve] | –
25 | FC(F)(F)c1ccc2c(c1)[nH]c(=S)n2C1CC1 | inconclusive: 25.1 µM [inhibitor, single point] | –

Row | Compound | Potency | activity, negative = inhibition
26 | N#CC1(c2ccccc2)CCC(NCCc2ccccc2)CC1 (stereo not given) | active: 25.1 µM | –
27 | CCOc1ccc2nc(COC(=O)c3cccc([N+](=O)[O-])c3)c(C(C)=O)[n+]([O-])c2c1 | – | inactive: 22.2% [at 12.7 µM]
28 | Fc1ccc(C2=Nc3cccc4cccc(c34)N2)cc1 | inconclusive: 50.1 µM [inhibitor, partial curve] | –
29 | Clc1nc(CN2CCCCC2)nc2sc3c(c12)CCCC3 | inconclusive: 70.8 µM [inhibitor, single point] | –
30 | COc1ccc(NC(=O)CSc2nnc(NC(=O)c3ccccc3C(=O)O)s2)cc1 | inconclusive: 89.1 µM [inhibitor, single point] | –
31 | CN(C)c1ccc(CNC(=O)c2ccc(NC(=O)N3CCCCc4ccccc43)cc2)cc1 | inconclusive: 10 µM [inhibitor, partial curve] | –
32 | Cc1[nH]c2ccc3ncccc3c2c1C | inconclusive: 3.55 µM [inhibitor, partial curve, poor fit] | –
33 | CCc1ccccc1NC(=O)C1CCN(c2cnccn2)CC1 | inactive | –
34 | Nc1ccc(-c2nnc(-c3ccccc3)o2)cc1 | inactive | –
35 | COc1cc(/C=C2\SC(=S)N(NC(=O)c3cccnc3)C2=O)ccc1O | inconclusive: 50.1 µM [inhibitor, partial curve, poor fit] | –
36 | CN1CCN(C=NC2=NN(c3cccc(C(F)(F)F)c3)CC2)CC1 | active: 2.82 µM | –
37 | NC(=O)c1c(NC(=O)CN2CCOCC2)sc2c1CCC2 | active: 25.1 µM | –
38 | CCCC[C@H](O)c1ccccc1 | – | inactive: -17.9% [at 12.7 µM]
39 | Cc1cc2c(c(=O)n1Cc1ccccc1)C1O[C@](CCCCN3C(=O)c4ccccc4C3=O)(Cc3ccccc31)O2 | – | inactive: -0.249% [at 2.33 µM]
40 | Cc1[nH]c2ccccc2c1C(c1ccncc1)N1CCC(C)CC1 (stereo not given) | active: 28.2 µM | –
41 | Cc1cccc(C)c1NC(=O)C1C2C=CC(C2)C1C(=O)NCc1ccccn1 (stereo not given) | inconclusive: 44.7 µM [inhibitor, partial curve, poor fit] | –
42 | O=C(CS(=O)c1ccc(C(F)(F)F)cc1[N+](=O)[O-])Oc1ccc(Cl)cc1 (stereo not given) | inconclusive: 31.6 µM [inhibitor, full curve] | –
43 | Cc1ccc(C(=O)OCC(=O)NCc2ccc(F)cc2)o1 | – | inactive: -4.43% [at 12.7 µM]
44 | O=C(NCCS(=O)(=O)N1CCN(c2ccc(F)cc2)CC1)c1cccc(C(F)(F)F)c1 | inactive | –
45 | NC(=O)CC(NC(=O)c1ccccc1)c1ccc(N2CCCCCC2)c([N+](=O)[O-])c1 (stereo not given) | active: 50.1 µM | –
46 | O=S(=O)(Nc1ccc(N2CCOCC2)cc1)c1ccc2ccccc2c1 | active: 39.8 µM | –
47 | CCC(=O)Nc1nnc(SCC(=O)NC2CCCC2)s1 | inconclusive: 7.94 µM [inhibitor, full curve] | –
48 | COc1ccc2c(c1)c1c(c(=O)n(-c3ccc(OC)c(OC)c3)c(=O)n1Cc1ccccc1F)n2C | inconclusive: 7.08 µM [inhibitor, single point] | –
49 | COc1ccccc1NS(=O)(=O)c1cccc(N=C2N=C(N)c3ccccc32)c1 | inconclusive: 8.91 µM [inhibitor, full curve, poor fit] | –
50 | O=S(=O)(O)CC(S)CS (stereo not given) | – | inactive: -34.1% [at 2.33 µM]

Row | Compound | Potency | activity, negative = inhibition
51 | CC(=O)c1ccc(Nc2ccc3cc(S(=O)(=O)N4CCCC4)ccc3n2)cc1 | inconclusive: 31.6 µM [inhibitor, single point] | –
52 | CC(C)Oc1cccc(C2CC(=O)Nc3cc4c(cc32)OCO4)c1 (stereo not given) | inconclusive: 17.8 µM [inhibitor, partial curve, poor fit] | –
53 | CCN(CC)S(=O)(=O)c1ccc2c(c1)c(=O)c(C(=O)NCc1cccs1)cn2C | inconclusive: 89.1 µM [inhibitor, single point] | –
54 | CC1CN(S(=O)(=O)c2cccc(C(=O)OCC(=O)Nc3ccc4c(c3)OCO4)c2)CC(C)O1 (stereo not given) | active: 50.1 µM | –
55 | C=CCOc1c(Cl)cc(CNCCC)cc1Cl | inconclusive: 79.4 µM [inhibitor, single point] | –
56 | COc1ccc(CN2CCN(CCCCOc3ccc(Cl)cc3)CC2)c(OC)c1OC | active: 14.1 µM | –
57 | CCOC(=O)N1CCC(NC(=O)c2ccc3c(c2)N(Cc2ccc(F)cc2)CCS3)CC1 | inconclusive: 35.5 µM [inhibitor, partial curve] | –
58 | CC(=O)N1CCC2(CCCN(Cc3nccs3)C2)CC1 | – | inactive: -0.777% [at 12.7 µM]
59 | COc1ccc(CN(CC(=O)NCc2ccco2)C(=O)CCC(=O)Nc2ccccn2)cc1 | inactive | –
60 | COC(=O)c1ccc(N(CC(=O)NC2CCCC2)C(=O)c2ccc(C)s2)cc1 | inactive | –
61 | COc1ccc(N/C=C/C(=O)c2ccccc2)cc1 | – | inactive: 13.3% [at 0.501 µM]
62 | CC(=O)n1nc(-c2ccco2)nc1N | inactive | –
63 | CCC1CCCCN1c1nc(-c2cccc(OC)c2O)nc2ccccc12 (stereo not given) | active: 39.8 µM | –
64 | Cc1ocnc1C(=O)Nc1ccc(Cl)cc1 | inconclusive: 50.1 µM [inhibitor, partial curve, poor fit] | –
65 | CCOC(=O)C1CCN(C(=O)c2ccc(NC(=O)c3nsc4ccccc34)cc2)CC1 | inactive | –
66 | Cc1cccc(OCC(=O)N/N=C/C=C/c2ccco2)c1 | active: 8.91 µM | –
67 | CSc1ccc(CCNC(=O)C(C)n2nc(C)c3sc4ccccc4c3c2=O)cc1 (stereo not given) | inconclusive: 28.2 µM [inhibitor, single point] | –
68 | Cc1ccc(-c2c(C#N)c(N)nc3c2CCCCC3)cc1 | inactive | –
69 | Cc1c(C)n(Cc2ccccc2)c2ccc(C(=O)OCCN(C)C)cc12 | inconclusive: 2.24 µM [inhibitor, partial curve, poor fit] | –
70 | COc1ccc(N2CCN(S(=O)(=O)c3cccc4cccnc34)CC2)cc1 | inconclusive: 79.4 µM [inhibitor, partial curve, poor fit] | –
71 | O=C(CSc1nncc2ccccc12)Nc1ccccc1 | inconclusive: 79.4 µM [inhibitor, single point] | –
72 | COc1ccc(NC(=O)CC(NCCc2ccccc2)C(=O)O)c(OC)c1 (stereo not given) | active: 28.2 µM | –
73 | Cc1ccc(C(=O)OCc2c(C)noc2C)cc1NC(=O)c1ccco1 | inconclusive: 20 µM [inhibitor, partial curve, poor fit] | –
74 | Cc1ccccc1OCC(=O)NCCN(C)C | inconclusive: 3.16 µM [inhibitor, partial curve, poor fit] | –
75 | COc1ccc(CCNC(=O)CC2Nc3ccccc3NC2=O)cc1 (stereo not given) | inactive | –
